Experimental data published in the supplement of paper PMC8728848.
The list shows a part of the results.

Experiments:
Experiment in all cases: glycan array binding signal (z-score within array); higher = stronger binding
Conditions in all cases: glycan notation: IUPAC condensed, linker removed
[1] = target: Gal(b1-4)GlcNAc(b1-3)Gal(b1-4)Glc
How it was run: (§1)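 Glycan array binding is given as a within-array Z-score, which can be read as non-binding when negative. The arrays, 3228 of them, came from the Consortium for Functional Glycomics database and were retained only where the protein sequence was available. Z-scores were averaged across arrays of the same protein sequence at different concentrations or buffers and across linkers.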

[2] = target: Gal(b1-4)GlcNAc(b1-3)Gal(b1-4)GlcNAc
How it was run: as §1

[3] = target: Gal(b1-4)GlcNAc(b1-3)Gal(b1-4)GlcNAc(b1-2)Man(a1-3)[Gal(b1-4)GlcNAc(b1-3)Gal(b1-4)GlcNAc(b1-2)Man(a1-6)]Man(b1-4)GlcNAc(b1-4)GlcNAc
How it was run: as §1

[4] = target: Gal(b1-4)GlcNAc(b1-3)Gal(b1-4)GlcNAc(b1-2)Man(a1-3)[Gal(b1-4)GlcNAc(b1-3)Gal(b1-4)GlcNAc(b1-2)Man(a1-6)]Man(b1-4)GlcNAc(b1-4)[Fuc(a1-6)]GlcNAc
How it was run: as §1

[5] = target: Gal(b1-4)GlcNAc(b1-3)Gal(b1-4)GlcNAc(b1-2)[Gal(b1-4)GlcNAc(b1-3)Gal(b1-4)GlcNAc(b1-6)]Man(a1-6)[Gal(b1-4)GlcNAc(b1-3)Gal(b1-4)GlcNAc(b1-2)Man(a1-3)]Man(b1-4)GlcNAc(b1-4)GlcNAc
How it was run: as §1

[6] = target: Gal(b1-4)GlcNAc(b1-3)Gal(b1-4)GlcNAc(b1-2)[Gal(b1-4)GlcNAc(b1-3)Gal(b1-4)GlcNAc(b1-6)]Man(a1-6)[Gal(b1-4)GlcNAc(b1-3)Gal(b1-4)GlcNAc(b1-2)Man(a1-3)]Man(b1-4)GlcNAc(b1-4)[Fuc(a1-6)]GlcNAc
How it was run: as §1

[7] = target: Gal(b1-4)GlcNAc(b1-3)Gal(b1-4)GlcNAc(b1-3)Gal(b1-4)GlcNAc
How it was run: as §1

[8] = target: Gal(b1-4)GlcNAc(b1-3)Gal(b1-4)GlcNAc(b1-3)Gal(b1-4)GlcNAc(b1-2)Man(a1-3)[Gal(b1-4)GlcNAc(b1-3)Gal(b1-4)GlcNAc(b1-3)Gal(b1-4)GlcNAc(b1-2)Man(a1-6)]Man(b1-4)GlcNAc(b1-4)GlcNAc
How it was run: as §1

[9] = target: Gal(b1-4)GlcNAc(b1-3)Gal(b1-4)GlcNAc(b1-3)Gal(b1-4)GlcNAc(b1-2)Man(a1-3)[Gal(b1-4)GlcNAc(b1-3)Gal(b1-4)GlcNAc(b1-3)Gal(b1-4)GlcNAc(b1-2)Man(a1-6)]Man(b1-4)GlcNAc(b1-4)[Fuc(a1-6)]GlcNAc
How it was run: as §1

[10] = target: Gal(b1-4)GlcNAc(b1-3)Gal(b1-4)GlcNAc(b1-3)Gal(b1-4)GlcNAc(b1-2)[Gal(b1-4)GlcNAc(b1-3)Gal(b1-4)GlcNAc(b1-3)Gal(b1-4)GlcNAc(b1-6)]Man(a1-6)[Gal(b1-4)GlcNAc(b1-3)Gal(b1-4)GlcNAc(b1-3)Gal(b1-4)GlcNAc(b1-2)Man(a1-3)]Man(b1-4)GlcNAc(b1-4)[Fuc(a1-6)]GlcNAc
How it was run: as §1

[11] = target: Gal(b1-4)GlcNAc(b1-3)Gal(b1-4)GlcNAc(b1-3)Gal(b1-4)GlcNAc(b1-3)Gal(b1-4)GlcNAc(b1-2)Man(a1-3)[Gal(b1-4)GlcNAc(b1-3)Gal(b1-4)GlcNAc(b1-3)Gal(b1-4)GlcNAc(b1-3)Gal(b1-4)GlcNAc(b1-2)Man(a1-6)]Man(b1-4)GlcNAc(b1-4)GlcNAc
How it was run: as §1

[12] = target: Gal(b1-4)GlcNAc(b1-3)Gal(b1-4)GlcNAc(b1-3)Gal(b1-4)GlcNAc(b1-3)Gal(b1-4)GlcNAc(b1-2)Man(a1-3)[Gal(b1-4)GlcNAc(b1-3)Gal(b1-4)GlcNAc(b1-3)Gal(b1-4)GlcNAc(b1-3)Gal(b1-4)GlcNAc(b1-2)Man(a1-6)]Man(b1-4)GlcNAc(b1-4)[Fuc(a1-6)]GlcNAc
How it was run: as §1

[13] = target: Gal(b1-4)GlcNAc(b1-3)Gal(b1-4)GlcNAc(b1-3)Gal(b1-4)GlcNAc(b1-3)Gal(b1-4)GlcNAc(b1-2)[Gal(b1-4)GlcNAc(b1-3)Gal(b1-4)GlcNAc(b1-3)Gal(b1-4)GlcNAc(b1-3)Gal(b1-4)GlcNAc(b1-6)]Man(a1-6)[Gal(b1-4)GlcNAc(b1-3)Gal(b1-4)GlcNAc(b1-3)Gal(b1-4)GlcNAc(b1-3)Gal(b1-4)GlcNAc(b1-2)Man(a1-3)]Man(b1-4)GlcNAc(b1-4)[Fuc(a1-6)]GlcNAc
How it was run: as §1

[14] = target: Gal(b1-4)GlcNAc(b1-3)Gal(b1-4)GlcNAc(b1-3)Gal(b1-4)GlcNAc(b1-3)Gal(b1-4)GlcNAc(b1-3)Gal(b1-4)GlcNAc(b1-2)Man(a1-3)[Gal(b1-4)GlcNAc(b1-3)Gal(b1-4)GlcNAc(b1-3)Gal(b1-4)GlcNAc(b1-3)Gal(b1-4)GlcNAc(b1-3)Gal(b1-4)GlcNAc(b1-2)Man(a1-6)]Man(b1-4)GlcNAc(b1-4)GlcNAc
How it was run: as §1

[15] = target: Gal(b1-4)GlcNAc(b1-3)Gal(b1-4)GlcNAc(b1-3)Gal(b1-4)GlcNAc(b1-3)Gal(b1-4)GlcNAc(b1-3)Gal(b1-4)GlcNAc(b1-2)Man(a1-3)[Gal(b1-4)GlcNAc(b1-3)Gal(b1-4)GlcNAc(b1-3)Gal(b1-4)GlcNAc(b1-3)Gal(b1-4)GlcNAc(b1-3)Gal(b1-4)GlcNAc(b1-2)Man(a1-6)]Man(b1-4)GlcNAc(b1-4)[Fuc(a1-6)]GlcNAc
How it was run: as §1

[16] = target: Gal(b1-4)GlcNAc(b1-3)Gal(b1-4)GlcNAc(b1-3)Gal(b1-4)GlcNAc(b1-3)Gal(b1-4)GlcNAc(b1-3)Gal(b1-4)GlcNAc(b1-2)[Gal(b1-4)GlcNAc(b1-3)Gal(b1-4)GlcNAc(b1-3)Gal(b1-4)GlcNAc(b1-3)Gal(b1-4)GlcNAc(b1-3)Gal(b1-4)GlcNAc(b1-6)]Man(a1-6)[Gal(b1-4)GlcNAc(b1-3)Gal(b1-4)GlcNAc(b1-3)Gal(b1-4)GlcNAc(b1-3)Gal(b1-4)GlcNAc(b1-3)Gal(b1-4)GlcNAc(b1-2)Man(a1-3)]Man(b1-4)GlcNAc(b1-4)[Fuc(a1-6)]GlcNAc
How it was run: as §1

[17] = target: Gal(b1-4)GlcNAc(b1-3)Gal(b1-4)GlcNAc(b1-3)Gal(b1-4)GlcNAc(b1-3)Gal(b1-4)GlcNAc(b1-3)Gal(b1-4)GlcNAc(b1-3)Gal(b1-4)GlcNAc(b1-2)Man(a1-3)[Gal(b1-4)GlcNAc(b1-3)Gal(b1-4)GlcNAc(b1-3)Gal(b1-4)GlcNAc(b1-3)Gal(b1-4)GlcNAc(b1-3)Gal(b1-4)GlcNAc(b1-3)Gal(b1-4)GlcNAc(b1-2)Man(a1-6)]Man(b1-4)GlcNAc(b1-4)GlcNAc
How it was run: as §1

[18] = target: Gal(b1-4)GlcNAc(b1-3)Gal(b1-4)GlcNAc(b1-3)GalNAc
How it was run: as §1

[19] = target: Gal(b1-4)GlcNAc(b1-3)Gal(b1-4)GlcNAc(b1-3)[Gal(b1-4)GlcNAc(b1-3)Gal(b1-4)GlcNAc(b1-6)]GalNAc
How it was run: as §1

B1: Epa3to1 (Candida glabrata) (protein)
chain: MGSSHHHHHHSSGLVPRGSHMKRELSSQNPFGYPIGCSPQDVAIIPGLTMELYSYPIVSGTPPNCYDASYVDPEYPRTGYLKRKMVGKSTGVTGNLNYKYSVEKACMVKYGNLPAGYNYNEPLTVSNFTMILYGYFKAQTTGLHTFFVNADDLLYINFGAGNAFDCCKREDSKTKLGEYVAYDIWHVDSSKNKVSLFLEKDLYYPIRMFFNNREYDSSLDLSFSVNGATDQISDFSGYLYSVPDQPDTCPAHIGYDTTCR
**Q.** For B1, which “glycan array binding signal (z-score)” value [1] is on record?
**A.** 0.271

**Q.** What about the “glycan array binding signal (z-score)” value [2] of the same binder?
**A.** -0.741

**Q.** What about the “glycan array binding signal (z-score)” value [3] of the same binder?
**A.** -0.256

**Q.** And the “glycan array binding signal (z-score)” value [4]?
**A.** -0.44

**Q.** What about the “glycan array binding signal (z-score)” value [5] of the same binder?
**A.** 7.55

**Q.** What about the “glycan array binding signal (z-score)” value [6] of the same binder?
**A.** -0.165

**Q.** And the “glycan array binding signal (z-score)” value [7]?
**A.** -0.666

**Q.** And the “glycan array binding signal (z-score)” value [8]?
**A.** -0.228

**Q.** What about the “glycan array binding signal (z-score)” value [9] of the same binder?
**A.** -0.21

**Q.** And the “glycan array binding signal (z-score)” value [10]?
**A.** -0.176

**Q.** What about the “glycan array binding signal (z-score)” value [11] of the same binder?
**A.** -0.05

**Q.** What about the “glycan array binding signal (z-score)” value [12] of the same binder?
**A.** 0.268

**Q.** What about the “glycan array binding signal (z-score)” value [13] of the same binder?
**A.** -0.602

**Q.** And the “glycan array binding signal (z-score)” value [14]?
**A.** -0.281

**Q.** And the “glycan array binding signal (z-score)” value [15]?
**A.** -0.649

**Q.** And the “glycan array binding signal (z-score)” value [16]?
**A.** 0.311

**Q.** And the “glycan array binding signal (z-score)” value [17]?
**A.** 0.127

**Q.** And the “glycan array binding signal (z-score)” value [18]?
**A.** 0.334

**Q.** And the “glycan array binding signal (z-score)” value [19]?
**A.** 0.067
